Article PMC12136788
The list shows a part of the results.

B1: 118483815_118484459_965_3pUTR_ENSG00000065183_ENST00000349139|human|control|control (ssRNA)
RNA: GGGAGUUCUACAGUCCGACGAUCUCUAGCUUUCUUCAUCUUCUUAUCCAUUUUCUUCUGAAUUUCCUUUUUGGAAAGGAUACAAAACAAUUCUAGCACAGAGUCAGUUCCAUGGCAAGCAAGAAUCCUGCCUGUCUUGUCGACCAACAGAGGAUUGAGCAUCA
B2: chr2:216981417:216981418:+_ENSG00000079246_ENST00000392132|hu_hu|hu_hu_hu_mus_True|28_48 (ssRNA)
RNA: GGGAGUUCUACAGUCCGACGAUCCUGAUACUGGUCCUUGCCAGCAAGGGCAUUAUCAGUGCCAUCUGUGCCAUAGAGGACUAACGCAAUCUCAUCCUUGCUCUCCGCAAACACCUGUCGUUGGACAAACAUAGUCAUCACUUUCAACAGAGGAUUGAGCAUCA
B3: chr9:95013113:95013114:-_ENSG00000196305_ENST00000443024|hu_hu|hu_hu_hu_mus_False|8_108 (ssRNA)
RNA: GGGAGUUCUACAGUCCGACGAUCCUCAGUGAGAAAAGGCGUGUAAGGGGCCAUCAGUCUGCACAGAGAAAGCAGGACACUGAACAGUGUCUCCAGAGCCAUGACACAGUCUUCCACCCCACUCUCACCCUUUAAUCUCCUCCUCAACAGAGGAUUGAGCAUCA
B4: chr12:39763582:39763583:-_ENSG00000139116_ENST00000544797|hu_mus|hu_hu_hu_mus_False|1_8 (ssRNA)
RNA: GGGAGUUCUACAGUCCGACGAUCCUCUAGGAACUGGGCAUUCACUUUGAAUUCAGGAGGGGGCAGCCCGUUUUUAAUCGCUGAGGUCUUUUUCUCAUCAAUACUCUUGAACAGGUGUCUAACAGCACGAGAAAUAAUACCCAGCAACAGAGGAUUGAGCAUCA
B5: chr3:119450855:119450856:-_ENSMUSG00000028134_ENSMUST00000029780|mus_hu|mus_mus_mus_hu_False|58_78 (ssRNA)
RNA: GGGAGUUCUACAGUCCGACGAUCUGUGGUGCCACUAAGAGGAGUAUUUGCUGUCUGGACCGCUGUCACAGCUUGAAGAACUACUUGAGCACGUUGGUUUAAUGUAUUAUCUGUCUUUAGUUCUUUGUGAUUCGAGUACUGGAUCAACAGAGGAUUGAGCAUCA
B6: chr14:53325254:53325255:-_ENSG00000073712_ENST00000341590|hu_hu|motif|central (ssRNA)
RNA: GGGAGUUCUACAGUCCGACGAUCAACCACUUUGCAAUCUACUUCAGUACAAAUGAAGGACAAUCGUACUUCAUCUGCAAACUCGGCGGUGACCAUUUUGAUUUCCCAGUUGACAUUCCACUGUUUCAUGUUGCUGAAACGCCACAACAGAGGAUUGAGCAUCA
B7: chr7:135832511:135832512:+_ENSMUSG00000042105_ENSMUST00000118605|mus_mus|motif|central (ssRNA)
RNA: GGGAGUUCUACAGUCCGACGAUCAUCCUGCCUAUUCUAGAGUUAGUAUUUACAUCAGUCAAAAACAUUAUGUCCUUAUCGGAAAGCAUUUGGCACAAAACAAGCGGUCGAGUGUUGUCGGCCUUUUUCCCCCUCCCACCCCAUCAACAGAGGAUUGAGCAUCA
B8: chr4:95690885:95690886:+_ENSMUSG00000028572_ENSMUST00000156910|mus_mus|mus_mus_mus_hu_False|8_98 (ssRNA)
RNA: GGGAGUUCUACAGUCCGACGAUCUUUAGAAAAUGUUAAUGUUAAAUCUAAAAUAUUUUCAAAGGCUUAUUUUAUUUUACCAGAAGUCACAGGCAAGCAGACACUACAAGAAUAUAUGAAAAUGAAACAACAGUGUAUAACUGUCAACAGAGGAUUGAGCAUCA
B9: 16769249_16779710_1388_3pUTR_ENSG00000145555_ENST00000513610|human|control|control (ssRNA)
RNA: GGGAGUUCUACAGUCCGACGAUCAGCAAGCAGCCUCGACACUUCCCGAACUUCCUCCUUGCUGAACUGCAUCACGUCCAUUGCCGUAAUAACUUCCCUAAAGGAUUCCUGGUCACUGAUUGUCUUGUCUUCUACACAUCCAGACAACAGAGGAUUGAGCAUCA
B10: 156751024_156752551_1840_CDS_ENSG00000055163_ENST00000521420|human|control|control (ssRNA)
RNA: GGGAGUUCUACAGUCCGACGAUCUAACUCCAGGAAGAAUUCUCGGAACCAGAGCUGGGAGAGGUCACAACACUGCUGCAGGGCUUCACUGAUGUUGAGCAGAUGUGUGAAGAAGAAGGACUGUUUGUGAAAGUCCUCUAUGGCCAACAGAGGAUUGAGCAUCA
B11: 69965070_69965190_5251_ncRNA_ENSMUSG00000029208_ENSMUST00000154728|mouse|control|control (ssRNA)
RNA: GGGAGUUCUACAGUCCGACGAUCGAAGAGUUUACAGUCUCUUCUGAUGUACCAUUCAUUCCCUCUGCUCCAAAGGUCUUAAAAAAAGAUCUUUUUUUCAUUCUAUCCCUAAUGCUGUCUCACAGUGUCUCUCCUCAGCACUUCCAACAGAGGAUUGAGCAUCA
B12: chr6:38652254:38652255:-_ENSG00000124767_ENST00000373365|hu_hu|hu_hu_hu_mus_False|1_48 (ssRNA)
RNA: GGGAGUUCUACAGUCCGACGAUCCGAGAACUUCAUAGCAGGGAAGUCAAGCUUCUGCAGGAGGGUCAGUCCAAGAACCCUCGUAUAAAAAUCCAGUGACUUCUUAGGAUCCUUAAUUCUUAGCAUCGUUUGCUGCAAUAGAAACAACAGAGGAUUGAGCAUCA
B13: chr17:64801638:64801639:+_ENSG00000154229_ENST00000413366|hu_mus|hu_hu_hu_mus_False|38_108 (ssRNA)
RNA: GGGAGUUCUACAGUCCGACGAUCUAUAAAUACAUAUACAUAUGUACACAUAUAUAGUAAAACCCUAGUUAAACGUGUAAAGUAGCCAUUCAUUUUUGAAAUUUUAUCUACAUUAAAAAAUUAAUAUAUCUGAUAGAGUGCCAGCAACAGAGGAUUGAGCAUCA
B14: 3366418_3366538_1347_CDS_ENSMUSG00000020668_ENSMUST00000020999|mouse|control|control (ssRNA)
RNA: GGGAGUUCUACAGUCCGACGAUCCUUGGUGACAAAGGAAGAGAGGUCCUUGAUGUAGACCCCUGUUUCAGGAUUCUCCUUCAGCUCUAGCCUCUUGCCUGGCUCCUUGGAUAGCAGGUCUCGGAUCUCCUCCUGGUAGAUCUCCAACAGAGGAUUGAGCAUCA
B15: chr7:99593754:99593755:+_ENSMUSG00000052572_ENSMUST00000098308|mus_hu|FALSE|FALSE (ssRNA)
RNA: GGGAGUUCUACAGUCCGACGAUCCUUUAGUGCCUUCUUUCAGUUUAUAAAUGGCAAAAUAGGCAAUCAACAAUCAUAAAGCUAAUCCCAGGUGGAAUCCCCUCCUGUCAGUGAGGUUAGUCCUCCAUACACUUGCAAAUUUUACAACAGAGGAUUGAGCAUCA
B16: chr2:135163197:135163198:+_ENSMUSG00000051177_ENSMUST00000110116|mus_mus|motif|central (ssRNA)
RNA: GGGAGUUCUACAGUCCGACGAUCGAAGAGUUGAGGCAUGUAGUUGGAUGAAUCCACACGUGUUCCCUUGGGAUAUAUCCUGCGGAGUUGCAUCUUGUUGUAUUCUACAAAUUCCACCGGAGACUUUGUAAGUUGUUCAAGUCCCAACAGAGGAUUGAGCAUCA
B17: chr2:47389785:47389786:-_ENSG00000143933_ENST00000272298|hu_mus|FALSE|FALSE (ssRNA)
RNA: GGGAGUUCUACAGUCCGACGAUCCUGUCCCCAGCUCCUUUGUUGUUAUUGUCCCAUCCCCGUCCUUGUCAAAUAGUGAGAAAGCUUCUUUGAACUCUGCAAUCUGCUCUUCAGUCAGUUGGUCAGCCAUGCUGCAAGGGCUACCAACAGAGGAUUGAGCAUCA
B18: chr4:124478334:124478335:+_ENSMUSG00000028894_ENSMUST00000094782|mus_mus|FALSE|FALSE (ssRNA)
RNA: GGGAGUUCUACAGUCCGACGAUCGGCUGAAUAAGGCAAAGUACAGUUACUUAAAACUUUUAAAUAAAAAUGAAUAGGGAGCUAUUUGUGUUAAAUAACUAGAGUUGAAUGUGGAACGUCAGUUCUACUAUGGUGGAUUGCCCCCAACAGAGGAUUGAGCAUCA
B19: chr1:23381596:23381597:+_ENSG00000004487_ENST00000356634|hu_hu|motif|central (ssRNA)
RNA: GGGAGUUCUACAGUCCGACGAUCAGUUGGUAGGGGUUUUAUCCUCUUAUAGAUGCCGAAGUUGAUAAGACCAUGACGCUCGGAAUAACUGUGAACUCGGUGGACAAGCACAGUAUCACUGUUAUAAGGUGCUUCUAAUUGUUGCAACAGAGGAUUGAGCAUCA
B20: chr2:109737439:109737440:+_ENSMUSG00000027162_ENSMUST00000028583|mus_mus|motif|central (ssRNA)
RNA: GGGAGUUCUACAGUCCGACGAUCCAUUUUCUCAAAGCGGGACUCCAUUUCUUCCAAGACUUUUGGUGUGUACCGUACGACGGAUUUAACCUUCCCUUGGGCUGCUUUCAGUAGCUCUACCGCUUUCUCAUGGUGCUCCCCUUCCAACAGAGGAUUGAGCAUCA
B21: chr2:192256868:192256869:+_ENSG00000128641_ENST00000304164|hu_hu|motif|central (ssRNA)
RNA: GGGAGUUCUACAGUCCGACGAUCUGGGUUUCGGAUGAAUAUCUUUGAUCUACCAAAGGAGUAUUCUUCCACGGGAAUUUCGGAUUCAUUAAAUAGGACCUCCACACCAGACCUGGCUGGUCCUUUCCAAUGAGGCCAUGUUUGCAACAGAGGAUUGAGCAUCA
B22: 32336150_32338001_3424_CDS_ENSMUSG00000024002_ENSMUST00000121285|mouse|control|control (ssRNA)
RNA: GGGAGUUCUACAGUCCGACGAUCGCUCUGGAACUGUGGCAUCUGAGGGGAAUGUAUCAUAAGCGGAGAGGGAGCCUCACGAAGAUGACCAGCUGAGUAGGGGUCUGACUUGUGGUGCCGGGGGGAAGGGUGAUGCUGGAUGACCAACAGAGGAUUGAGCAUCA

What follows are binders tested against T1, UNK ZnF1-3 (human, UniProt Q9C0B0 31-174) (assay: nsRBNS (natural sequence RNA bind-n-seq); RBNS binding buffer (assumed for nsRBNS): 25 mM Tris pH 7.5, 150 mM KCl, 3 mM MgCl2, 0.01% Triton X-100, 500 ug/ml BSA, 20 U/ml SUPERase-In, 4 C; UNK is unkempt and MSI1 is Musashi-1; names of the RNAs are library labels; protein concentration not given here; high values mean tight binding).
T1 sequence: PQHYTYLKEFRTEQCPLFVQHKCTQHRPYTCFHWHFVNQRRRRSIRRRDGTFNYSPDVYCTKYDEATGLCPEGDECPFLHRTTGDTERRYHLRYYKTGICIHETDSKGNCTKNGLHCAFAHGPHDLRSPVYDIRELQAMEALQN
With B1 the binding signal was 0.814 enrichment R. B2 showed a binding signal of 0.797 enrichment R. In the case of B3, the binding signal is reported as 1.34 enrichment R. Work on B4 yielded a binding signal of 1.03 enrichment R. B5 showed a binding signal of 0.899 enrichment R. For B6, the binding signal was 0.437 enrichment R. B7 showed a binding signal of 1.43 enrichment R. Binder B8 has a binding signal of 2.41 enrichment R. For B9, the binding signal was 1.2 enrichment R. For B10, the binding signal was 1.32 enrichment R. B11 gave a binding signal of 0.76 enrichment R. For B12, the binding signal was 0.834 enrichment R. With B13 the binding signal was 2.31 enrichment R. B14 gave a binding signal of 0.642 enrichment R. B15 gave a binding signal of 0.96 enrichment R. B16 showed a binding signal of 0.999 enrichment R. Work on B17 yielded a binding signal of 1.04 enrichment R. With B18 the binding signal was 2.15 enrichment R. For B19, the binding signal was 0.878 enrichment R. B20 showed a binding signal of 0.63 enrichment R. Work on B21 yielded a binding signal of 0.49 enrichment R. B22 was tested, and the binding signal was 2.89 enrichment R.
